Laboratory results: PubChem BioAssay AID624417 (National Center for Advancing Translational Sciences (NCATS), 2012)
The campaign covered roughly 410,000 compounds. About 6,400 (1.6%) were called active. Inconclusive results, whose numbers are uncertain, are shown with a selection of clear calls. Calls come from the whole dose curve; as a rule, active = well fitted inhibition curve with a large enough effect; inconclusive = small, poorly fitted or top-dose-only effect; inactive = no such curve, though single readings can be large or run the other way. Potencies of inconclusive entries are left out as doubtful fits.

Target: Glucagon-like peptide 1 receptor (Homo sapiens) (UniProt P43220)
Assay: qHTS of GLP-1 Receptor Inverse Agonists (Inhibition Mode); note: nearly all actives have a fitted effect of over 55% in size
Settings: HEK293 GLP-1R CRE-luciferase, luminescence, 24 h, GLP-1R form is constitutively active; activity change, negative = inhibition: at 38.3 µM (top of the series) unless noted
Summary of the method: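 Using stably transfected HEK293 (constitutively active GLP-1R, cAMP-luciferase reporter), compounds were incubated 24 hr and luciferase measured by luminescence.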
% is set by controls: 0 for no effect and ±100 for the full control effect; potency is the fitted concentration of half-maximal effect; tags give direction and shape of the fitted curve.

Chain of UniProt P43220 (P43220 whole entry, looked up): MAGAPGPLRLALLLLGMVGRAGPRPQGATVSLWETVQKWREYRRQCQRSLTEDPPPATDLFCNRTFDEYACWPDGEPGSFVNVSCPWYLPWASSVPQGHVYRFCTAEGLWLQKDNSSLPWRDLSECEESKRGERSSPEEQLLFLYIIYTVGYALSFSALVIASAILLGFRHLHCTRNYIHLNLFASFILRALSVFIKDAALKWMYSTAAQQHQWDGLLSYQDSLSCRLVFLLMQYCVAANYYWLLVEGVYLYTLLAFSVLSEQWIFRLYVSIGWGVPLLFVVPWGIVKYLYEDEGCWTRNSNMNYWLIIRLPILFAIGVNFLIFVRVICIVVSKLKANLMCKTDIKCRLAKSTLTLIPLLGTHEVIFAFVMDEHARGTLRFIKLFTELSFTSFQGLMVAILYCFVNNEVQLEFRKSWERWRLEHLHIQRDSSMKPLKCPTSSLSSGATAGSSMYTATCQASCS

**Q.** How did the Potency turn out when `O=C(COC(=O)c1cc(-c2ccc(F)cc2)nc2ccccc12)NCC1CCCO1` (configuration not stated) was run?
**A.** Its Potency is inconclusive [inhibitor, single point].

**Q.** For `COCCOC(=O)c1[nH]c2c(c1C)C(=O)CC(c1cc(OC)ccc1OC)C2` (configuration not stated), which Potency is on record?
**A.** Its Potency is inconclusive [inhibitor, full curve, poor fit].

**Q.** How did the Potency turn out when `C=CCc1ccccc1OCC(O)CN1CCN(c2ccc(C)cc2)CC1` (configuration not stated) was run?
**A.** Its Potency is inconclusive [inhibitor, partial curve, poor fit].

**Q.** How did the Potency turn out when `Cc1ccc2nc(N/N=C/c3ccco3)cc(C)c2c1` was run?
**A.** Its Potency is inconclusive [inhibitor, single point].

**Q.** Which Potency does the source give for `CC(C)c1nc(C(=O)N2CCCC(N3CCN(c4cccc(Cl)c4)CC3)C2)cs1` (configuration not stated) here?
**A.** Its Potency is inconclusive [inhibitor, partial curve, poor fit].

**Q.** How did the Potency turn out when `O=C(/C=C/C(Cl)(Cl)Cl)Nc1ccc(Cl)cc1` was run?
**A.** Its Potency is inconclusive [inhibitor, partial curve, poor fit].

**Q.** For `COc1ccccc1NC(=O)Nc1nnc(Cc2ccccc2F)s1`, which Potency is on record?
**A.** Its Potency is inconclusive [inhibitor, partial curve, poor fit].

**Q.** `CC(C)(C)OC(=O)n1cc(/C=N/NC(=O)c2ccco2)c2ccccc21` was tested. Which “activity change, negative = inhibition” value did it give?
**A.** The value was inactive: 28.2%.

**Q.** For `O=C(Nc1ccc(Nc2ccccc2)cc1)c1ccco1`, which Potency is on record?
**A.** The Potency was inconclusive [inhibitor, single point].

**Q.** For `O=C(c1ccc(CS(=O)Cc2ccc(Cl)cc2)o1)N1CCN(c2ccc(F)cc2)CC1` (configuration not stated), which Potency is on record?
**A.** Its Potency is inconclusive [inhibitor, partial curve, poor fit].

**Q.** For `Cc1cccc(NC(=O)C2SC(=Nc3c(C)cccc3C)C(C(=O)N3CCOCC3)=C2N)c1` (configuration not stated), which Potency is on record?
**A.** The Potency was inconclusive [inhibitor, single point].

**Q.** Which Potency does the source give for `NS(=O)(=O)c1cccc(NC(=O)CN2CCC(Cc3ccccc3)CC2)c1` here?
**A.** Its Potency is inconclusive [inhibitor, partial curve, poor fit].

**Q.** For `COc1ccc(S(=O)(=O)N(Cc2ccc(OC)c(OC)c2)Cc2ccco2)cc1`, which Potency is on record?
**A.** Its Potency is inconclusive [inhibitor, single point].

**Q.** For `CN(C)CCCN(C(=O)c1ccc(S(=O)(=O)N2CCc3ccccc3C2)cc1)c1nc2c(F)cc(F)cc2s1`, which Potency is on record?
**A.** Its Potency is inconclusive [inhibitor, single point].

**Q.** For `S=c1[nH]nc(-c2cccc3ccccc23)n1-c1cccnc1`, which “activity change, negative = inhibition” value is on record?
**A.** The value was inactive: 9.18%.

**Q.** For `Cc1cc(C(=O)COC(=O)CN=C2NS(=O)(=O)c3ccccc32)c(C)n1CCc1ccc(Cl)cc1`, which Potency is on record?
**A.** The Potency was inconclusive [inhibitor, single point].

**Q.** Which Potency does the source give for `Cc1ccc(S(=O)(=O)N(C)c2ccc(C(=O)NCC(c3ccco3)N3CCCC3)cc2)cc1` (configuration not stated) here?
**A.** Its Potency is inconclusive [inhibitor, partial curve, poor fit].

**Q.** Which “activity change, negative = inhibition” value does the source give for `O=C(NN=C(Cc1ccccc1)Cc1ccccc1)c1ccccc1O` here?
**A.** Its value is inactive: -23%.

**Q.** Which Potency does the source give for `O=C(NCCN1CCc2ccccc2C1)Nc1ccc([N+](=O)[O-])cc1` here?
**A.** Its Potency is inconclusive [inhibitor, single point].

**Q.** How did the Potency turn out when `COc1ccc(-c2nc(Cn3c(SCc4ccc(F)cc4)nc4ccncc43)c(C)o2)cc1OC` was run?
**A.** Its Potency is inconclusive [inhibitor, single point].

**Q.** With `Cc1ccc(/C=N/NC(=O)CCCOc2ccc(Cl)cc2Cl)cc1[N+](=O)[O-]` as the molecule, how does the Potency read?
**A.** The Potency was inconclusive [inhibitor, single point].

**Q.** `COc1cccc(N/C(N)=N/c2nc(C(F)(F)F)cc(C(F)(F)F)n2)c1` was tested. Which Potency did it give?
**A.** The Potency was inconclusive [inhibitor, single point].

**Q.** `CC1(C)C2CCC1(C)C(OC(=O)c1ccc(O)cc1)C2` (configuration not stated) was tested. Which Potency did it give?
**A.** The Potency was inconclusive [inhibitor, single point].

**Q.** Which Potency does the source give for `O=C(c1cc(Cl)nc2ccccc12)N1CCN(S(=O)(=O)c2cccc(C(F)(F)F)c2)CC1` here?
**A.** The Potency was active: 11.2 µM.

**Q.** Which Potency does the source give for `COc1ccccc1N(C(C)=O)C1=C(Cl)C(=O)c2ccccc2C1=O` here?
**A.** The Potency was inconclusive [inhibitor, single point].

**Q.** How did the Potency turn out when `CCOc1ccc(C(=O)CC(C(=O)O)N2CCN(Cc3ccccc3)CC2)cc1` (configuration not stated) was run?
**A.** The Potency was inconclusive [inhibitor, partial curve].

**Q.** For `O=C(NC(=C(Cl)Cl)S(=O)(=O)c1ccc(Cl)cc1)c1ccccc1`, which Potency is on record?
**A.** The Potency was inconclusive [inhibitor, single point].

**Q.** With `O=C(NCc1cccc(F)c1)C1=Cc2cc(Br)ccc2OC1` as the molecule, how does the Potency read?
**A.** The Potency was inconclusive [inhibitor, single point].

**Q.** With `CN1CCN(c2ccc(NC(=O)c3cc(Cl)c4c(c3)OCCO4)cc2)CC1` as the molecule, how does the Potency read?
**A.** The Potency was inconclusive [inhibitor, full curve, poor fit].

**Q.** For `O=C(/C=C/c1ccco1)NCCc1ccccc1`, which “activity change, negative = inhibition” value is on record?
**A.** The value was inactive: -5.87%.

**Q.** For `CCc1nn(C(CC)C(=O)NCCCc2ccccc2)c(=O)c2cc3occc3n12` (configuration not stated), which Potency is on record?
**A.** The Potency was inconclusive [inhibitor, single point].

**Q.** `CN(C)CCSc1nc2cc(S(=O)(=O)N3CCCCC3)ccc2o1` was tested. Which Potency did it give?
**A.** Its Potency is inconclusive [inhibitor, partial curve, poor fit].

**Q.** With `CCc1nc(CN2CCCC(C(=O)c3ccc4c5c(cccc35)CC4)C2)c(C)[nH]1` (configuration not stated) as the molecule, how does the Potency read?
**A.** The Potency was inconclusive [inhibitor, single point].

**Q.** With `Nc1ncnc2c1ncn2[C@@H]1O[C@H](CO)[C@@H](O)[C@@H]1O` as the molecule, how does the “activity change, negative = inhibition” value read?
**A.** The value was inactive: 15.6%.

**Q.** How did the Potency turn out when `Cc1cccc(N2CCN(S(=O)(=O)c3c(C)[nH]c(C)c3C(=O)N3CCCC3)CC2)c1C` was run?
**A.** The Potency was inconclusive [inhibitor, partial curve, poor fit].

**Q.** `CCOc1c(Cl)cc(C(=O)Nc2cccc(C(=O)O)c2)cc1Cl` was tested. Which Potency did it give?
**A.** The Potency was inconclusive [inhibitor, partial curve, poor fit].

**Q.** How did the Potency turn out when `O=[N+]([O-])c1ccc(N2CCN(Cc3ccccc3)CC2)c2c1no[n+]2[O-]` was run?
**A.** Its Potency is inconclusive [inhibitor, single point].

**Q.** Which Potency does the source give for `Cc1cc(C)c(NC(=O)c2cccc3c2C(=O)N(C2CCCCC2)C3)c(C)c1` here?
**A.** The Potency was inconclusive [inhibitor, full curve].

**Q.** `COc1ccc(-c2[nH][nH]c(=O)c2NC(=O)c2ccccc2Br)cc1` was tested. Which “activity change, negative = inhibition” value did it give?
**A.** Its value is inactive: 16.7%.

**Q.** With `CCOc1cc(Br)cc(/C=C2\SC(=Nc3ccccc3)NC2=O)c1O` as the molecule, how does the Potency read?
**A.** The Potency was inconclusive [inhibitor, single point].

**Q.** `CCn1c(=O)cc(SCC(=O)N2CCC(C)CC2)c2ccccc21` was tested. Which Potency did it give?
**A.** Its Potency is inconclusive [inhibitor, single point].

**Q.** How did the Potency turn out when `Cc1ccc(SCCOCCN2CCc3ccccc3C2)cc1` was run?
**A.** The Potency was inconclusive [inhibitor, partial curve, poor fit].

**Q.** `Cc1ccc(CNC(=O)c2ccc(CSCc3ccc(Cl)cc3)o2)cc1` was tested. Which Potency did it give?
**A.** The Potency was active: 10 µM.

**Q.** `CC(=O)NC(c1ccc(Cl)cc1Cl)c1ccc2cccnc2c1O` (configuration not stated) was tested. Which Potency did it give?
**A.** The Potency was inconclusive [inhibitor, full curve, poor fit].

**Q.** How did the Potency turn out when `O=C1C=C(/C=C/C2C=CC=CC2)C[C@@H](c2ccc(Cl)cc2)C1` (some centres not stated) was run?
**A.** The Potency was inconclusive [inhibitor, single point].

**Q.** Which Potency does the source give for `O=C(Nc1ccc(Cl)cc1)Nc1ccc(C(=O)N2CCOCC2)cc1` here?
**A.** The Potency was inconclusive [inhibitor, partial curve, poor fit].

**Q.** How did the Potency turn out when `S=C(NCCc1ccccc1)Nc1ccc(Br)cc1` was run?
**A.** Its Potency is inconclusive [inhibitor, single point].

**Q.** For `CCNc1nc(Nc2ccc(C)c(Cl)c2)c2cnn(C)c2n1`, which Potency is on record?
**A.** The Potency was inconclusive [inhibitor, partial curve].

**Q.** With `O=C(CCCn1c(=S)[nH]c2cc3c(cc2c1=O)OCO3)N1CCN(c2ccc(Cl)cc2)CC1` as the molecule, how does the “activity change, negative = inhibition” value read?
**A.** The value was inactive: -7.28%.

**Q.** Which Potency does the source give for `c1ccc(SCCOCCN2CCc3ccccc3C2)cc1` here?
**A.** Its Potency is inconclusive [inhibitor, partial curve, poor fit].

**Q.** `O=C(COC(=O)/C=C/c1cccc(C(F)(F)F)c1)NC(=O)NCc1ccco1` was tested. Which Potency did it give?
**A.** Its Potency is inconclusive [inhibitor, single point].

**Q.** How did the Potency turn out when `NC(=O)c1cccc(-c2ccnc3c2CC(C(=O)NCc2ccccc2)O3)c1` (configuration not stated) was run?
**A.** The Potency was active: 5.01 µM.

**Q.** How did the “activity change, negative = inhibition” value turn out when `COc1ccc(N2CC(NC(=O)c3ccc(S(=O)(=O)N4CCCC4)cc3)CC2=O)cc1` (configuration not stated) was run?
**A.** Its value is inactive: 5.72%.

**Q.** Which Potency does the source give for `N#Cc1c(-c2ccccc2)nc2n(-c3ccccc3)nc(C(=O)Nc3ccccc3)n2c1=O` here?
**A.** The Potency was inconclusive [inhibitor, full curve].

**Q.** Which Potency does the source give for `Cc1ccc(S(=O)(=O)NCCC(c2ccc(F)cc2)c2ccco2)cc1` (configuration not stated) here?
**A.** The Potency was inconclusive [inhibitor, partial curve, poor fit].

**Q.** `COc1ccc(CN2CCCC(C(=O)N3CCc4ccccc4C3)C2)cc1OC` (configuration not stated) was tested. Which Potency did it give?
**A.** The Potency was inconclusive [inhibitor, full curve].

**Q.** `Cc1cccc(S(=O)(=O)Nc2cc(Cl)ccc2N2CCOCC2)c1` was tested. Which Potency did it give?
**A.** The Potency was active: 10 µM.

**Q.** `CCCCN(Cc1ccccc1)C(=O)c1oc(=O)c2ccccc2c1-c1ccc(C)cc1` was tested. Which “activity change, negative = inhibition” value did it give?
**A.** The value was inactive: -2.78%.

**Q.** How did the Potency turn out when `COC(=O)/C(=C\Nc1ccc(Cl)cc1Cl)NC(=O)c1ccc(OC)cc1` was run?
**A.** Its Potency is inconclusive [inhibitor, partial curve].

**Q.** `COc1ccc([C@@H]2[C@@H]3C(=O)N(C(C)(C)C)C(=O)[C@@H]3[C@]3(CC(C)C)C(=O)N(c4cccc(F)c4)C(=O)N23)cc1` was tested. Which Potency did it give?
**A.** The Potency was inconclusive [inhibitor, partial curve, poor fit].

**Q.** With `O=C(Nc1ccc(Cl)cc1)Nc1ccon1` as the molecule, how does the Potency read?
**A.** The Potency was inconclusive [inhibitor, partial curve, poor fit].

**Q.** Which Potency does the source give for `O=[N+]([O-])c1ccc(Cl)cc1N1CCCCC1` here?
**A.** Its Potency is inconclusive [inhibitor, single point].
